Experimental findings from ChEMBL document CHEMBL1201862, “PubChem BioAssay data set” (2004) are described below.

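Results reflect a 48-hour exposure of cells in 96-well plates to compound at five concentrations. Abbreviation: GI50, concentration required for 50% inhibition of growth.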 The source made the active and inactive calls. Rule as the data show it: active = GI50 up to about 1.1 µM and inactive = higher.

The subject of this assay is NCI-H322M. In words: inhibition of tumour cell growth, NCI panel, 48 h.
`O=C(O)CCC(=O)c1ccc[nH]1`: the GI50 was inactive: > 100 µM.

Regarding `CN(C)CCC(=O)N1C/C(=C/c2ccccc2)C(=O)/C(=C\c2ccccc2)C1`, the GI50 was inactive: 2.02 µM.

Regarding `Cc1c2ccncc2cc2c1[nH]c1ccccc12`, the GI50 is inactive: 3.05 µM.

As for `O=S(=O)(O)n1ccnc1`, the GI50 was inactive: > 100 µM.

Turning to `CSc1nc2c(=O)n(-c3ccccc3)c(=S)n(-c3ccccc3)c2s1`, the GI50 is inactive: > 100 µM.

Consider `COC(=O)/C(=N\N)C(C(=O)C(=O)Nc1nnc(S)[nH]1)c1nc2ccc([N+](=O)[O-])cc2nc1O` (stereo not given), for which the GI50 was inactive: > 100 µM.

Turning to `CCCCCCc1nn2c(-c3ccncc3)nnc2s1`, the GI50 was inactive: > 10 µM.

For the compound `Cc1cc2c(C(C)C)c(O)c(O)c(/C=N/c3cc(C(F)(F)F)ccc3Cl)c2c(O)c1-c1c(C)cc2c(C(C)C)c(O)c(O)c(/C=N/c3cc(C(F)(F)F)ccc3Cl)c2c1O`, the GI50 was inactive: > 100 µM.

On to `COC(Cc1cc(C(O)(c2ccc(C(C)(C)C)cc2)c2cc(CC(OC)(c3cc(C(OC)(c4ccc(C(C)(C)C)cc4)c4ccc(C(C)(C)C)cc4)c(C)cc3C)c3cc(C(OC)(c4ccc(C(C)(C)C)cc4)c4ccc(C(C)(C)C)cc4)c(C)cc3C)c(C)cc2C)c(C)cc1C)(c1cc(C(OC)(c2ccc(C(C)(C)C)cc2)c2ccc(C(C)(C)C)cc2)c(C)cc1C)c1cc(C(OC)(c2ccc(C(C)(C)C)cc2)c2ccc(C(C)(C)C)cc2)c(C)cc1C`, for which the GI50 was inactive: > 75 µM.

For `C=CCCC(=O)C(=[N+]=[N-])C(=O)CCC(=O)c1ccccc1`, the GI50 was inactive: > 10 µM.

For the compound `O=C(C[n+]1ccc2ccccc2c1)c1ccc2ccc3ccccc3c2c1`, the GI50 was inactive: 3.24 µM.

On to `Nc1nc(Cl)cc(NCCCCCCCCCCCCNc2cc(Cl)nc(N)n2)n1`, for which the GI50 is inactive: > 100 µM.

On to `O=C1c2ccccc2C(=O)c2c1ccc(C1C(=O)c3ccccc3C1=O)c2-c1c(C2C(=O)c3ccccc3C2=O)ccc2c1C(=O)c1ccccc1C2=O`, for which the GI50 is inactive: > 100 µM.

In the case of `CSc1nc(NC2OCC(OC(C)=O)C(OC(C)=O)C2OC(C)=O)c(/N=C\C=N\c2c(NC3OCC(OC(C)=O)C(OC(C)=O)C3OC(C)=O)nc(SC)[nH]c2=O)c(=O)[nH]1` (stereo not given), the GI50 was inactive: > 85.9 µM.

Turning to `CCCNC(=O)Cn1c(-c2ccccc2)cc2ccccc21`, the GI50 was inactive: > 100 µM.

For `CC(=O)CCN1CC2CN=NC2(C#N)C1` (stereo not given), the GI50 is inactive: > 100 µM.

As for `[N-]=[N+]=Nc1c([N+](=O)[O-])c(=O)n(-c2ccccc2)c2ccccc12`, the GI50 is inactive: 21.4 µM.

For the compound `NNc1nncc2[nH]nnc12`, the GI50 was inactive: > 100 µM.

Regarding `O=C1OC(C2(O)OC(=O)c3ccccc32)c2ccccc21` (stereo not given), the GI50 is inactive: > 100 µM.

Regarding `COc1ncc(/C=C2\OC(=O)c3ccccc32)c(OC)n1`, the GI50 was inactive: > 100 µM.

As to `Cc1c(C#N)c2nnn(-c3ccc(Cl)cc3)c(=O)n2c1-c1ccccc1`, the GI50 was active: 0.124 µM.

On to `Cn1c(=O)c2c(nc3n2CCCC(=O)N3CC(O)CCl)n(C)c1=O` (stereo not given), for which the GI50 is inactive: > 100 µM.

For `CC(C)Oc1cccc(N2C(NCc3c[nH]c4ccccc34)=Nc3ccncc3S2(=O)=O)c1`, the GI50 is inactive: 22.7 µM.

Regarding `COc1ccc(CNC(=O)[C@H](Cc2ccc(O)cn2)NC(C)=O)cc1`, the GI50 is inactive: > 100 µM.

Take `CCOC(=O)C(=Cc1ccccc1Br)C(=O)OCC`: the GI50 is inactive: 2.62 µM.

Consider `CCOC(OC1=C(C#N)CCC1)C(C)[Se]c1ccccc1` (stereo not given), for which the GI50 is inactive: > 100 µM.

Regarding `CN(C)CCCNC(=O)N/N=C/c1ccccc1`, the GI50 is inactive: > 100 µM.

As for `O=C1/C(=C/c2ccc(O)cc2)CCC1CNc1ccccc1` (stereo not given), the GI50 is inactive: 13.4 µM.

Turning to `CCOC(=O)c1ccc(N(CCOS(=O)(=O)c2ccc(C)cc2)CCOS(=O)(=O)c2ccc(C)cc2)cc1`, the GI50 was inactive: > 100 µM.

For `CC(C)(C)C1=CC(O)(c2c3ccccc3c(C3(O)C=C(C(C)(C)C)C(=O)C(C(C)(C)C)=C3)c3ccccc23)C=C(C(C)(C)C)C1=O`, the GI50 was inactive: > 100 µM.

As to `Cc1ncc([N+](=O)[O-])n1CCNCCCn1ccnc1[N+](=O)[O-]`, the GI50 was inactive: > 100 µM.

Take `CCCCCCCCCCCCOC1C(COCCN2CCCCC2)OC2OC(C)(C)OC21` (stereo not given): the GI50 is inactive: 5.73 µM.

`COc1ccc(C2=C(N)c3ncccc3C2=O)cc1`: the GI50 was inactive: > 100 µM.

For the compound `CCCCNC(=S)Nc1nc(C(=O)NNC(=S)Nc2ccccc2)cs1`, the GI50 is inactive: 77.3 µM.

On to `COc1ccc2c(CCNC(C)=O)c(C(C)=O)[nH]c2c1`, for which the GI50 was inactive: 89.9 µM.

Turning to `COC(=O)C(=O)C(C(=O)OC)C(=O)C(=O)Nc1c(C)cccc1C` (stereo not given), the GI50 is inactive: > 100 µM.

Regarding `Cn1nnnc1SC(F)(F)c1nc2ccccc2o1`, the GI50 is inactive: > 100 µM.

Turning to `Cc1cc(O)c(C(c2ccncc2)c2c(O)cc(C)[nH]c2=O)c(=O)[nH]1`, the GI50 was inactive: > 100 µM.

On to `S=C(/N=c1/sc(Nc2ccccc2)nc2sc3c(c12)CCCC3)Nc1ccccc1`, for which the GI50 is inactive: > 62.5 µM.

With `CC(C)(CN1CCCCC1)C(/C=C/c1ccc(Cl)c(Cl)c1)=N\NC(=O)N/N=C(/C=C/c1ccc(Cl)c(Cl)c1)C(C)(C)CN1CCCCC1`, the GI50 was inactive: 1.78 µM.

For `O=C1C([N-]S(=O)(=O)c2ccccc2)=C([n+]2ccc(Cc3ccccc3)cc2)C(=O)c2ccccc21`, the GI50 was inactive: 1.7 µM.

For the compound `CC12CCC(CC1(Cl)Cl)C2` (stereo not given), the GI50 is inactive: > 100 µM.

As to `COC(=O)c1cccc(C)c1C1CN=NC12Cc1cc(C)cc(C)c1C2=O` (stereo not given), the GI50 was inactive: 81.8 µM.

Take `CCCCCCCCCCCc1noc2c1C(=O)C(O)CC2` (stereo not given): the GI50 was inactive: 76.9 µM.

In the case of `CN(C)CCNC(=O)c1cccc2cc3cc(O)ccc3nc12`, the GI50 is inactive: 1.73 µM.

For `CCCCc1c(C(=O)OC(C)(C)C)cc(C#Cc2cc(C(=O)OC(C)(C)C)c(CCCC)c(C(=O)OC(C)(C)C)c2)cc1C(=O)OC(C)(C)C`, the GI50 is inactive: > 100 µM.

`OCC1C(OCc2ccccc2)C(OCc2ccccc2)C(OCc2ccccc2)CN1Cc1ccccc1` (stereo not given): the GI50 is inactive: 13 µM.

`Cc1cn(C2CC(N=[N+]=[N-])C(COP(=O)(O)OCC3OC(n4cc(F)c(=O)[nH]c4=O)CC3O)O2)c(=O)[nH]c1=O` (stereo not given): the GI50 was inactive: > 100 µM.

Turning to `C/C=C1\CC(C(=O)OCC)CCCCCCCCCCC1=O` (stereo not given), the GI50 is inactive: > 100 µM.

On to `C[C@@H](NC1CCC[C@H]1O)c1ccccc1` (stereo not given in full), for which the GI50 is inactive: > 100 µM.

For `O=C1Nc2ccccc2/C1=C\c1c(Cl)[nH]c2ccccc12`, the GI50 was inactive: 1.71 µM.

`CC(=O)OC1CCC2(C)C(CCC3C2CCC2(C)C(c4ccc(=O)oc4)C(OC(C)=O)CC32O)C1` (stereo not given): the GI50 is active: 0.0125 µM.

Turning to `CC(CCC[C@H](C)CO)[C@H]1[C@@H](O)C(O)C2[C@@H]3C[C@@H](O)C4(O)C[C@@H](O)CC[C@]4(C)C3CC[C@@]21C` (stereo not given in full), the GI50 is inactive: > 100 µM.

As to `CCN(CC)CCNc1ccc2nnn3c4ccccc4c(=O)c1c23`, the GI50 was inactive: 2.71 µM.

For `CN(C)Cc1cc(C(=O)/C=C/c2c(Cl)cccc2Cl)cc(CN(C)C)c1O`, the GI50 is inactive: 11.5 µM.
